# Data: the supplement of paper PMC3334620
# Over roughly 33,000 sequences, “E-score (-0.5 to 0.5)” has its median near -0.036; the highest 2% begin near 0.37. The list shows a part of the results.
# Target: T1, Yer064c (UniProt P40041)
# T1 sequence: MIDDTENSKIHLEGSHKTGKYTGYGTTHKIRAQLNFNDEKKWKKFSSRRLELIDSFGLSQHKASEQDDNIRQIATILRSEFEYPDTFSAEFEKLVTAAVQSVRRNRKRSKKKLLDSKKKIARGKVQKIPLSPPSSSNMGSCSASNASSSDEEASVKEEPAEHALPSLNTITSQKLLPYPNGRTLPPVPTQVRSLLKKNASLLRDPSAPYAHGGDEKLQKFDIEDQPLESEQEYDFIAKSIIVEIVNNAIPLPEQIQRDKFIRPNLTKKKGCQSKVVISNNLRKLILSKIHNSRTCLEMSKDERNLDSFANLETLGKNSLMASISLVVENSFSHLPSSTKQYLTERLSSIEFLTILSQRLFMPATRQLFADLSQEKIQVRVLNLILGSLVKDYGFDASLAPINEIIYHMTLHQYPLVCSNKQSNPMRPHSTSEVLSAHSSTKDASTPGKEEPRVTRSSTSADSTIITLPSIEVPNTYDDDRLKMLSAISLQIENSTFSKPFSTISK
# Test: PBM E-score (8-mer binding enrichment) (E-score (-0.5 to 0.5)); higher = stronger / more preferred TF binding; most listed sequences are background and not binding sites
# Conditions: protein concentration: 200 nM; construct: GST-full length
# In short: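 Each ungapped eight-base word and its reverse complement, pooled, received an E-score from the Universal PBM Analysis Suite. Underlying scans, normalised with masliner, recorded fluorescent anti-GST bound to GST-tagged yeast transcription factors. These were applied at about 100-200 nM to universal all-10-mer Agilent arrays double-stranded by primer extension.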
row,Sequence,PBM E-score
1,GCGTATAA,0.00865
2,GTAGACAA,-0.0969
3,GGACTTGA,0.106
4,ACGGGCCC,-0.286
5,CGGACGAA,0.0811
6,ATTAAACC,0.084
7,ATTCTTGG,0.0853
8,ATCAATGA,0.28
9,AGACCCCT,-0.132
10,GGCCCACC,-0.236
11,ACGTACTA,0.0572
12,CGATTCTC,0.111
13,GAGGGGAA,-0.124
14,CCTACTCC,-0.0825
15,GACCCGCA,-0.039
16,GCGCTCCA,-0.274
17,ATCCTCCG,-0.0457
18,CGACACTC,0.122
19,GACAATAA,-0.00128
20,CTAGTAAC,0.154
21,CAGCGCGG,-0.047
22,ATCGTCGC,-0.037
23,CACCGGTG,0.064
24,ATTGATGG,0.0678
25,CGACGGAG,-0.182

row,Sequence,PBM E-score
1,GAAGGTCA,0.198
2,CCGTTCAC,-0.2
3,CCTACGAA,-0.211
4,ACCTCCTC,-0.19
5,CCGAAAGA,-0.0898
6,CTTGTGTA,0.135
7,GAATCTCC,0.0345
8,CCCTTCTC,-0.339
9,CGCATCGC,-0.286
10,GTTTTCGA,-0.115
11,AACGAAAG,0.0902
12,GGGGTGGA,-0.205
13,CACAAATC,0.0271
14,CATTGGTC,-0.0764
15,AAAGTTCC,-0.297
16,GAGCCGGC,-0.122
17,TCATGAAA,0.119
18,AGTTTATG,0.132
19,ATGTGTCG,0.102
20,CAGTTCGG,-0.186
21,CTAAGATA,0.18
22,CACCTCTC,-0.279
23,CGTGAGCC,0.0694
24,ATCAATTA,0.123
25,AGCAATAC,-0.115

row,Sequence,PBM E-score
1,ACTTTCCG,-0.0114
2,AGGTGGCG,-0.216
3,ACCTTGGG,-0.0782
4,TGTGTGAA,0.0349
5,TCTACAAA,0.134
6,AATGTAGT,0.181
7,ACTTGAGA,0.0742
8,AATCTTAT,0.207
9,AACATGTA,0.0308
10,ATGCCCTG,-0.224
11,CAAGCTTG,-0.0778
12,AGAGGAAT,0.11
13,CAGTTCTC,-0.0456
14,GATGCGTA,-0.0554
15,ACATAATC,0.169
16,CTATCTCA,0.00959
17,AGACTTTC,-0.00836
18,AAACCCCC,-0.365
19,GAGTTCCC,-0.0744
20,AGAGTATA,-0.0714
21,ATGAGCCG,0.112
22,ACCTTCTG,0.0129
23,CTCGGGTA,0.143
24,ACAGGTCA,0.00607
25,ACAGCGCC,-0.0291

row,Sequence,PBM E-score
1,AAGACCTA,-0.112
2,AATACGGG,-0.046
3,CGCCCGTC,-0.3
4,GTCGGAAA,-0.0347
5,GTGTACTA,0.127
6,GTAAGGTA,0.00781
7,ATTCTACG,0.0233
8,GCGCCGCC,-0.197
9,GGGGCTCA,-0.108
10,ACCGACAA,-0.159
11,AAAAAGCG,-0.0892
12,GCTGTCGA,-0.241
13,AAAGAAAT,-0.0199
14,CACTTACA,-0.0278
15,CCCTATCC,-0.275
16,CACTGCTG,-0.187
17,CATTTGAG,0.205
18,ATTCCCCG,0.058
19,AATTTCAT,-0.0112
20,CGGGACCA,-0.208
21,AAGTCCCA,-0.11
22,CAACAGTA,-0.0286
23,AATATTCA,0.0631
24,CTGAGTGA,0.238
25,AGTAGATC,-0.00683

row,Sequence,PBM E-score
1,CAGTCAGA,0.361
2,CCGTATAA,0.0587
3,ACAGAGCT,-0.202
4,CCGGGGGC,-0.128
5,GACTATAC,0.413
6,ACGTTTTA,-0.0181
7,TACCTTAA,0.0326
8,ACAAATAG,-0.0418
9,CCCGTTTA,0.00269
10,CACCCCAA,-0.0551
11,CCCTGCCA,0.0354
12,CCAGGCAG,-0.189
13,AAATCGTT,0.0589
14,GGTATTGA,0.056
15,AATACACT,0.145
16,GCCTTTAC,-0.17
17,GGTCTATA,-0.0474
18,AGTGGGCC,-0.307
19,GTTGGGCA,-0.102
20,CTTGCCAC,0.0476
21,AGTGCTTA,-0.16
22,GTGTAAAA,-0.148
23,ATTTTAAA,0.164
24,CTCCTATC,-0.0814
25,ATGCGGGA,-0.0255

row,Sequence,PBM E-score
1,AAGTAGGT,-0.0512
2,CGGATTGC,-0.225
3,AGCGCAAC,-0.19
4,CACTTCAC,-0.142
5,CCATTCCG,-0.186
6,ATGTTCTG,-0.115
7,TCAAACAA,0.103
8,CTTTGAAC,-0.0573
9,AAGTCAAG,0.283
10,GCATTAGC,-0.0698
11,CGGTCGAA,-0.249
12,ATTCTCCC,-0.0279
13,GGACCTCC,-0.399
14,CAGTCTGA,0.0593
15,ACAGAGTA,0.0495
16,GGGTACCA,-0.217
17,ATCGCCTA,-0.0235
18,GAGAAATA,0.0333
19,AATAAGGC,-0.356
20,ATCCAGAA,0.0693
21,ATTAAGAA,0.125
22,CGGATGAG,0.22
23,AGACAACG,-0.24
24,ACGGTAGA,-0.12
25,AATTATAC,-0.109

row,Sequence,PBM E-score
1,AAAAGAGA,0.0277
2,CCTACACA,0.0322
3,ACCCATCG,0.16
4,ACCATCCG,0.149
5,ACTTTGCG,0.0479
6,ATGAGCAG,-0.103
7,TCAGCTGA,0.248
8,ATGCCGGG,-0.264
9,CGAGTTTA,-0.0607
10,AACTTTGC,-0.113
11,GTTGCTTA,-0.0566
12,AACATCCG,-0.233
13,GCGTGTTA,-0.0117
14,CCCTAACG,-0.138
15,AAACCGAA,0.0673
16,CCAAATTA,0.162
17,CCACTTTA,-0.0244
18,CTGAGGTA,0.212
19,ACACATAT,0.104
20,CACTAAGG,0.0367
21,GCGTGATA,0.00442
22,CAATGACC,0.0491
